# The whole screen tested about 310,000 compounds, of which about 2,200 (0.71%) showed an effect of 50% or more. Effects have a minus sign here. The list shows a part of the results.
# Target: human ether-à-go-go-related gene (hERG) potassium channel (human, UniProt Q12809)
# Experiment: primary screen, population patch clamp on CHO cells stably expressing hERG
# human ether-à-go-go-related gene (hERG) potassium channel, sequence (Q12809 whole entry, looked up): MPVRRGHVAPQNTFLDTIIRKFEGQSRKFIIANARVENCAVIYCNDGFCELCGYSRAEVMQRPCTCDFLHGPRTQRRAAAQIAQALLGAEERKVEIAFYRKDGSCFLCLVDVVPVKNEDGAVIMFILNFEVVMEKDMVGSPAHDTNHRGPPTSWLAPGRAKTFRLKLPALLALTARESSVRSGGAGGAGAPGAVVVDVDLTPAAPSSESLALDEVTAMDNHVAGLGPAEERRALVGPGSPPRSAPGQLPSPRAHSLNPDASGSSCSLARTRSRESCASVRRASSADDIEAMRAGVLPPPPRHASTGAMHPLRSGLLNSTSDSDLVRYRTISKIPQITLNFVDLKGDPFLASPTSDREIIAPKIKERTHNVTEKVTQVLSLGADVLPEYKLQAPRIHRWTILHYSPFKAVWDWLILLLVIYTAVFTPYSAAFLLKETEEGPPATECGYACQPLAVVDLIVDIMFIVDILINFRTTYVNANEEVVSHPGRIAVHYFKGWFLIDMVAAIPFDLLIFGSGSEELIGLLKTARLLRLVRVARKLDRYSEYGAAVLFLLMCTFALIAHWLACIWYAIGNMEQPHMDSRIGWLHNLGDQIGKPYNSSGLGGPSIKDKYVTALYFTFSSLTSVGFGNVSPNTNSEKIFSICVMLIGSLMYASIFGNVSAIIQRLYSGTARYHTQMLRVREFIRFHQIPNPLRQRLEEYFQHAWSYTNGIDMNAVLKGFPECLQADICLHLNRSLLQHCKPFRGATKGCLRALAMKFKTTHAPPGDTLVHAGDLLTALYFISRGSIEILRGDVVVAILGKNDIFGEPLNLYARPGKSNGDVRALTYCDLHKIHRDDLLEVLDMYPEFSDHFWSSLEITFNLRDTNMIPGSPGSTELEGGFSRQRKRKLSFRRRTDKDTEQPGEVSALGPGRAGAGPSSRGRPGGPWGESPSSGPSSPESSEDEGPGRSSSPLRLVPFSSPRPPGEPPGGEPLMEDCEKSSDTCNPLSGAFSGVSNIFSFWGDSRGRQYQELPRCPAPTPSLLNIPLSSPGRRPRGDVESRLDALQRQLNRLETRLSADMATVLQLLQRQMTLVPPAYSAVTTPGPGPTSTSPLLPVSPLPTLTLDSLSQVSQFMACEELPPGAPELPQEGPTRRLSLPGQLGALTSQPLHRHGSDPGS
row,SMILES,"hERG current change (%, negative = inhibition) at 1uM"
1,Cc1nc2sc3c(c2c(=O)n1N)CCC3,14.5%
2,Cc1ccc(C(C)C)c(OCCNCCc2ccccc2)c1.O=C(O)C(=O)O,5.84%
3,CCCCCC(=O)N=Nc1c(O)[nH]c2ccc([N+](=O)[O-])cc12,4.59%
4,O=C(C1=C[C@@H](C2CCCCC2)C[C@@H](OCCCCO)O1)N1CCN(Cc2ccccc2)CC1,0.371%
5,Cc1ccc(CN2C(=O)N/C(=C/c3ccc(-c4ccc(C(=O)O)cc4)o3)C2=O)cc1,11.5%
6,CC(C)(C)OC(=O)N1CCC(Cc2cc(-c3cccnc3)no2)(C(=O)O)CC1,8.24%
7,CCOc1cc(/C=C2/C(=O)NC(=O)N(c3ccc(CC)cc3)C2=O)ccc1OC(=O)c1cccs1,13.4%
8,O=C(c1ccc(Cl)cc1)N1CCN=C1c1ccccc1,7.31%
9,CCCNC(=O)Cn1cnc2sc(C(=O)NCCCN3CCOCC3)c(C)c2c1=O,2.09%
10,CCOC(=O)c1cnc(-c2ccccc2)nc1Oc1ccc(Cl)c(Cl)c1,3.19%
11,COCc1ccc(C(=O)NC2CCCN(Cc3ccccc3F)C2)o1 (centres unmarked),9.3%
12,O=C(C1CCN(S(=O)(=O)c2ccccc2)CC1)N1CCc2ccccc21,18.9%
13,O=C(O)c1ccc(/C=N/NC(=O)C(O)(c2ccccc2)c2ccccc2)cc1,13.4%
14,CC1(C)Cc2cccc(OCC(=O)O)c2O1,16.1%
15,O=C(c1ccc(S(=O)(=O)Cc2ccccc2F)c([N+](=O)[O-])c1)N1CCCCCC1,10.3%
16,CC(=O)c1c(C)n(-c2ccc(C)cc2)c2ccc(O)cc12,7.9%
17,CCN1CCN(c2oc(-c3ccc([N+](=O)[O-])cc3)nc2C#N)CC1,-0.266%
18,CC(NC(=O)COC(=O)c1ccccc1Nc1ccccc1)c1ccccc1 (centres unmarked),-2.2%
19,CCCCNC(=S)NCc1ccc2c(c1)cc(C)n2C,12.4%
20,COc1ccc(NC(=O)C2CCCN(S(=O)(=O)c3c(C)n[nH]c3C)C2)c(OC)c1 (centres unmarked),4.33%
21,Cc1cc(C)c2c(c1)NC(c1cc3c(cc1Br)OCO3)C1CC=CC21 (centres unmarked),10.8%
22,CCS/C(N)=N/N=C/c1cc(C)ccc1O,11.9%

row,SMILES,"hERG current change (%, negative = inhibition) at 1uM"
1,CN1C(=O)CN=C(c2ccccc2Cl)c2cc(Br)ccc21,3.36%
2,Cc1ccc(S(=O)(=O)N(C)CC(=O)N2CCN(Cc3ccccc3)CC2)cc1,4.48%
3,Br.COc1ccc(N=C/C=C2/C=C(c3ccccc3)OC(C)(C)O2)cc1,1.14%
4,O=C(Cc1ccccc1)NC(=S)Nc1ccc(N2CCCCC2)cc1,5.03%
5,Cc1nnc(NC(=O)C2CCCCC2)s1,12%
6,Cc1ccc([N+](=O)[O-])cc1S(=O)(=O)Nc1ccc(C(=O)NCc2ccccn2)cc1,22.9%
7,CN(CC(=O)N1CCCC1)S(=O)(=O)c1cccc(Cl)c1,13%
8,CCCCNC(=O)OCC(CC)NC(=O)OCC(C)C (centres unmarked),13.7%
9,CCn1ncc(Br)c1C(=O)Nc1cc(C(=O)OC)ccc1C(=O)OC,3.18%
10,CC(=O)Nc1ccc(S(=O)(=O)N2CCN(Cc3csc(C)n3)CC2)cc1,19.7%
11,Nc1nnnn1/N=C/c1cccc(Br)c1,17.5%
12,CCn1c2ccccc2c2cc(NC(=O)c3coc(=O)c(Br)c3)ccc21,10.5%
13,CCOc1cc(/C=C2\SC(=N)N(c3nccs3)C2=O)ccc1OCCN1CCOCC1,-2.79%
14,CCn1cc(C(=O)NCc2cccnc2)c(=O)c2cc(F)c(N3CCN(C(=O)c4ccco4)CC3)cc21,0.951%
15,CCN1CCCc2cc(CN(CCN3CCOCC3)C(=S)Nc3cccc(C)c3)ccc21,12.6%
16,O=C(CSc1ccccc1)Nc1ccc(-c2nc3ccccc3[nH]2)cc1,9.37%
17,CSc1ccccc1NC(=O)CN1CCN(c2ccccn2)CC1,5%
18,CC1=C(C(=O)N2CCOCC2)C(c2c(C)cc(C)cc2C)NC(=S)N1 (centres unmarked),9.21%
19,CN1CCN(c2ccc(NC(=O)c3ccc4c(c3)OCCO4)cc2Cl)CC1,-21.1%
20,O=C(NCCc1ccccc1)C(c1cccs1)N(C(=O)CCl)c1ccc(Cl)cc1 (centres unmarked),5%
21,CCOC(=O)c1cnc(SC)nc1Sc1ccccc1Cl,18.7%
22,COc1cccc(/C=N/NC(=O)c2[nH]nc3c2CCc2ccccc2-3)c1O,10.2%
